According to the supplement of paper PMC3334620:
In all, about 33,000 sequences were measured (“E-score (-0.5 to 0.5)”: median about -0.036, highest 2% from about 0.37 on). The list shows a part of the results.

The sequences below were run against T1, Yer064c (UniProt P40041) (assay: PBM E-score (8-mer binding enrichment) (E-score (-0.5 to 0.5)); higher = stronger / more preferred TF binding; most listed sequences are background and not binding sites). Conditions: protein concentration: 200 nM; construct: GST-full length.
T1 sequence: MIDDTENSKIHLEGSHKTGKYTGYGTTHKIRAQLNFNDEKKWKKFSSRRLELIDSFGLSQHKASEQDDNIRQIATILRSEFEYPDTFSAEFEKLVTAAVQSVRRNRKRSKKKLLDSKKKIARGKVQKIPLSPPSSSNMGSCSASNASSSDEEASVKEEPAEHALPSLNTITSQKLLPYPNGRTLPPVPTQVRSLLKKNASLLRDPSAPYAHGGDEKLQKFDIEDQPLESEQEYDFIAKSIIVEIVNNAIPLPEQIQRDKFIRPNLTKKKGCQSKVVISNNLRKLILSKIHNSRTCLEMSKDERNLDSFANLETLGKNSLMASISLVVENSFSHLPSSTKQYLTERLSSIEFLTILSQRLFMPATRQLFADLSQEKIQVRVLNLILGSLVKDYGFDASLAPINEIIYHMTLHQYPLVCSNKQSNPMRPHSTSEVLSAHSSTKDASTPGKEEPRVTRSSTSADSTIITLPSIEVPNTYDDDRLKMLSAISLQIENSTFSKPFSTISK
Summary of the method: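 Detection of bound protein used fluorescent anti-GST, with scans normalised by masliner. The proteins were GST-tagged yeast transcription factors applied at about 100-200 nM to universal all-10-mer Agilent arrays made double-stranded by primer extension. Each ungapped eight-base word, pooled with its reverse complement, was scored with an E-score from the Universal PBM Analysis Suite.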

Sequence | PBM E-score
ACGAAGTC | 0.309
ACACTCAT | 0.25
GCGGCCGC | -0.326
CAACGACG | -0.206
AGCGTGTG | -0.0422
ATAAACGA | 0.0651
CGCATGCG | -0.285
ACGGTCGA | -0.208
CGTGGACA | -0.323
AACCGTTG | -0.0353
ACAGGGCC | -0.251
CTAGGAAC | -0.187
CTACAGCC | -0.134
AAAACTGC | -0.0523
CTGAATGA | 0.219
AAAGCCGT | -0.171
ATCTTTTA | 0.111
GCACGGGC | -0.321
ACGCGTCT | -0.322
GACGTCAA | -0.0626
ATAGAAGG | -0.119
AGCCCCTG | -0.214
AACCCTAA | -0.121
GCAAGTGC | -0.297
CTGCGCTC | -0.179

Sequence | PBM E-score
AGTGCCCG | -0.24
AACGTAAA | -0.0356
ATGATGTG | 0.197
ATAGGTCC | -0.0251
CGTCAGAC | -0.124
AGATTTTC | -0.0447
AACGGCGC | -0.0388
GTCTTTTA | 0.00579
CGTCCGAA | -0.074
CACGGCAG | -0.164
TCTCGACA | -0.0599
CACCTAAC | -0.079
CTGGTTTA | 0.017
GCTTTCGA | -0.197
AGTACACA | 0.239
CCACTTCG | -0.225
CAACTGTA | -0.182
CCCGAGGA | -0.251
ATGTCAGG | -0.186
ATTGTTTC | 0.24
TCCCGTAA | -0.236
CGACGCAG | -0.285
GCTGAAGA | 0.0233
AACAGCTG | 0.0922
AACTGCAC | -0.0827

Sequence | PBM E-score
AGAGAAAG | -0.131
ATTGCTCA | 0.0986
CAATCCGG | -0.0586
CAGCTACC | -0.0757
AGATTGTG | 0.0863
ATTTGCTC | 0.0149
CAGCGGAC | 0.00373
AAGACAAA | 0.0693
ATACCTCA | 0.0539
ATTACAAC | -0.0222
TAAAGGTA | 0.0493
CTTTGATC | 0.043
CACTAAAG | -0.0822
CTGGATTC | 0.00174
CAGCCCTG | -0.0512
ACTTCCTC | -0.136
GCTCCCAC | -0.201
CAAACTAC | -0.0801
AGCTGCCA | -0.216
CGTTCCGC | 0.0429
CCAGATCG | -0.362
CGCAACAG | -0.12
CCCACTTA | -0.0484
ACATAGAA | -0.0976
ATTTTCAA | 0.0969

Sequence | PBM E-score
AAGTCGGC | -0.0537
AATTTACG | -0.081
ACCAGTCG | 0.172
ATCGTGTC | -0.0149
CAGAGAAA | -0.0599
GCTCACAC | -0.00039
GGTACGAA | 0.0766
AGGCGAAT | 0.0274
GAGATGCA | -0.0868
ATGCTGGG | -0.17
CGCTTGAA | 0.0409
ATACATGG | -0.0135
CAATCCCA | -0.215
ACGTGAGG | -0.149
ATTAATGA | 0.238
ATCAGAGG | 0.0664
AAACAATC | 0.127
AGGGGCGC | -0.166
AAACTTTC | -0.155
AAGGAGCC | -0.0114
ATCTTTAA | 0.214
ACTTATAT | 0.262
ACAGGCGT | -0.254
CTTTGATA | 0.0969
AGGAGGAG | 0.00872

Sequence | PBM E-score
CGGTGTTC | -0.315
AAAGCCCC | -0.311
CAAGATTA | 0.199
CTTGTCTC | -0.0452
CCATGCTC | -0.0657
CTCTGTGC | -0.219
CAAAAGAA | 0.0512
CAAAGCAG | 0.0146
CGGTATCA | 0.0688
CCAACGGG | -0.238
AGAACATG | -0.0407
GACGTCCC | -0.291
AGGTCGGA | -0.2
CATGTATC | -0.0361
TGCTTAAA | -0.0449
GCCCTTCA | -0.0187
ATTTACTC | 0.133
TAAACCAA | -0.0214
AGCGTAAT | -0.0242
CGGCTGCC | -0.167
TCCAGTCA | 0.307
GATTTAGC | 0.185
ACGGGCCG | -0.147
AGGATGTG | 0.111
ATAGACAT | 0.219

Sequence | PBM E-score
CTTCGGCC | -0.0947
GCATGACA | 0.0053
GGAGACCC | -0.16
GATTGCCA | 0.0112
CTGCGTTA | 0.0866
AACCAAAT | 0.1
ATCCACAG | -0.0767
ATTATGAG | 0.23
AGTAGGGG | -0.22
AGTCTTCA | 0.408
AACGAGGC | -0.262
AAAGTTGT | -0.0817
GAGCAACC | 0.0134
GGCTGTGA | 0.0418
CGAACGGC | -0.0963
ATTAGACG | 0.0361
ATTGAATA | 0.169
AGTACAAC | 0.177
CACTAGGG | -0.189
GGACACAC | -0.0288
CGAGCGCG | -0.127
ACTCAGGG | 0.311
CCTAGTTC | -0.208
AAGTATAG | -0.187
CAATGCGG | -0.111

Sequence | PBM E-score
AGCTACCT | -0.0961
TCTGGGAA | 0.121
ACTCGTCG | 0.204
TATTTTCA | -0.0316
ATTGCGAG | 0.0622
AATCGACA | 0.0126
ATGTCATA | 0.013
CACACCAA | 0.0298
GCCACCAA | -0.0957
AGCTTTTG | 0.0281
TCGTCGAA | 0.122
CTGCTCCA | -0.161
GTTCTAGA | 0.009
AATTACGA | 0.101
CCTTGACG | -0.196
GAGTCTTA | 0.453
GGTCTCCA | -0.222
AGCCGCGC | -0.141
CCATGACC | -0.0318
AGAGCGTG | -0.154
CTTATCTA | -0.00823
ATGCGAAA | 0.111
CACAAGGG | -0.265
AGGTGGCC | -0.306
ATAAGTAG | 0.0508

Sequence | PBM E-score
AGTGGGAC | -0.131
ACACAGGT | 0.0662
AATGAAGA | 0.158
AGATGCCA | -0.0598
CCTTCCAG | -0.19
GGCCCGCA | -0.141
GATCCGAA | -0.156
AGAGGTAA | 0.0179
TATGATCA | 0.263
ATGGAACA | -0.0445
AGGGAAAC | -0.00906
CGTTAAAC | -0.0127
CACTAAAA | 0.02
CCCTTAGC | -0.247
AGGATCTA | -0.0917
ATTACGGA | 0.063
GGAAAAGA | 0.0203
GGCCGCAC | -0.22
AATCCCGT | -0.00352
GATGTAAA | -0.0141
TCGTAACA | 0.0775
GCCGCGCA | -0.201
ACTCAGGA | 0.26
AAAACGTG | -0.00995
GCGGTAAC | 0.0239

Sequence | PBM E-score
AAGATCGG | -0.188
CTCCTTGC | -0.0729
GGCCGAAA | 0.104
AACGAAGA | 0.127
AAACGGTC | -0.191
CCTATGGC | -0.149
AGAATGGG | -0.117
GGCAGTGA | 0.0347
GCGTACGC | -0.144
ACTTTCGA | 0.113
AAAAGTTA | 0.0954
AATCGGCA | 0.00862
CAAAAGAG | 0.0455
CTCACTGA | 0.202
GGGCAGAC | -0.227
CACCGGCC | -0.113
CGATGGAC | -0.0384
AATTCAAC | -0.0608
ACTATCCG | 0.182
